About 2,200 (0.71%) of roughly 310,000 compounds showed an effect of 50% or more. The effect is printed as a negative number. The list shows a part of the results.
biological target: human ether-à-go-go-related gene (hERG) potassium channel (human, UniProt Q12809); assay: primary screen, population patch clamp on CHO cells stably expressing hERG
Sequence (Q12809 whole entry, looked up): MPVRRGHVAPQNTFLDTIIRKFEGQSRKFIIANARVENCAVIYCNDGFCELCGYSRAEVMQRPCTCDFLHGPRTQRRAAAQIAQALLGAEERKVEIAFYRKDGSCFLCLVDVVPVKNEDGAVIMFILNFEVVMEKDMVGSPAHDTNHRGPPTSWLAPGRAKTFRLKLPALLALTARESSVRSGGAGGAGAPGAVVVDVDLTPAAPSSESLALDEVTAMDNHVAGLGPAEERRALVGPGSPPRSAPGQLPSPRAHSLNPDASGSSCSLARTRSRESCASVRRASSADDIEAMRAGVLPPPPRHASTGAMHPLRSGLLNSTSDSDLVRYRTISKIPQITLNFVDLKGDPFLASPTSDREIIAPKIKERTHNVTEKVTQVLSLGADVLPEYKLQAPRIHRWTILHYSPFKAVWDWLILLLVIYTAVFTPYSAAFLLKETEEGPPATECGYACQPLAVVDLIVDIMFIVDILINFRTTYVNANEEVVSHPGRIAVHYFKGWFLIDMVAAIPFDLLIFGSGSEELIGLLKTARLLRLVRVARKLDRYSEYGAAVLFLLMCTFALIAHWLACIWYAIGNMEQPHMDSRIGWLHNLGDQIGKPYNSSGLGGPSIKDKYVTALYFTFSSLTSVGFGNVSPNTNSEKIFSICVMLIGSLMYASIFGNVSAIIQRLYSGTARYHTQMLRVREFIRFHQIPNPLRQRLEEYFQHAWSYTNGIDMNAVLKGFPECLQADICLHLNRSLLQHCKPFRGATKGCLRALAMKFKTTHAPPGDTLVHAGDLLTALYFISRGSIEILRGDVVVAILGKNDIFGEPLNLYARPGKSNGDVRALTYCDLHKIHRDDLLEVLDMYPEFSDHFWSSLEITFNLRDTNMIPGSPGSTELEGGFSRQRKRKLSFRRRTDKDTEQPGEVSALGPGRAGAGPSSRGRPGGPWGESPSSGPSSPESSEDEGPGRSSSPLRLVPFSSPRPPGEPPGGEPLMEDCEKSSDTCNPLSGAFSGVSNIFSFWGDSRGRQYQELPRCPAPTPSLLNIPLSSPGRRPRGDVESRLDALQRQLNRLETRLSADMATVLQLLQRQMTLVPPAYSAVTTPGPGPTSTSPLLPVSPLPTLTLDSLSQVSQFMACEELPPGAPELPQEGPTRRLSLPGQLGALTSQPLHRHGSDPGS

SMILES	hERG current change (%, negative = inhibition) at 1uM [%]
COc1cc(C(NC(C)=O)NC(C)=O)ccc1OCc1ccccc1	7.89
CC1CCC(NC(=O)CCC(=O)N2CC(C)Oc3ccccc32)CC1 (centres unmarked)	6.58
O=C1CC(c2ccccc2)CC(=O)C1CS(=O)(=O)c1ccccc1 (centres unmarked)	18.9
O=c1c(Cc2c(F)cccc2Cl)c(O)ccn1C1CCCCCC1	11
O=C(O)c1cnccn1	10.6
CCOC(=O)C1=C(N)N2C(=O)C(C)SC2=C(C(=O)OC)C1c1ccccc1OC (centres unmarked)	13.6
COc1ccc(-c2c(C)nn3c(Cl)c(C)c(C)nc23)cc1	15.8
CC(NC(=O)CSc1nnc(-c2cccnc2)n1N)c1ccccc1 (centres unmarked)	4.59
CC(=O)c1ccc(S(=O)(=O)Nc2ccc(C(=O)NCCCn3ccnc3)cc2)cc1	0.706
CCOC(=O)CC(=O)CSc1ccc2nnc(-c3cccc(F)c3)n2n1	-35
CN(C)CCN(C(=O)c1cc(Cl)sc1Cl)c1nc2ccc(F)cc2s1.Cl	-16.6
Cc1ccc(-n2c(N)c(Br)c(=O)[nH]c2=O)cc1C	7.07
Cc1cccc(Sc2ccc([N+](=O)[O-])cn2)c1	6.43
COc1ccc(NC(=O)C(NC(C)=O)C(=O)Nc2ccc(F)cc2)cc1 (centres unmarked)	14.3
COc1cccc(NC(=O)CSc2ccc3nnc(-c4cccnc4)n3n2)c1	1.14
O=C(Nc1cccc(F)c1)Nc1cnccn1	14.5
O=C(CCc1ccccc1)NCC(=O)N/N=C/c1ccc2c(c1)OCO2	0.246
Cc1ccc(S(=O)(=O)N2CCCCC2CCNC(=O)C(=O)NCC2CCCO2)cc1 (centres unmarked)	6.93
CCc1ccccc1Nc1nc(N)nc(CSCC(=O)c2cc(C)n(C)c2C)n1	5.97
Cc1cc(N2CC(C(=O)NCc3cccnc3)CC2=O)ccc1C(C)C (centres unmarked)	1.95

SMILES	hERG current change (%, negative = inhibition) at 1uM [%]
CCCCSc1nc2c(c(C(F)(F)F)c1C#N)CCC2	17.2
O=C(COc1ccc(Cl)cc1Br)Nc1ccccc1N1CCCC1	11.5
CCOC(=O)C1(Cc2ccc(Cl)cc2)CCN(C(=O)c2cc(C)nc(C)n2)CC1	-0.647
COc1ccc(-c2c(C(=O)O)c(C(=O)O)c3n2CCC3)cc1	18.4
COc1ccc(-c2[nH]ncc2CN(CC2CCC(=O)N2)C(C)C)cc1F (centres unmarked)	7.07
CCNC(=O)C(=O)c1c(-c2ccccc2)[nH]c2ccccc12	8.09
CC(=O)c1cccc(N(CC(=O)NC2CCCC2)C(=O)CNC(=O)c2cccs2)c1	12.3
CCC1C(=O)N=C(SCC(=O)Nc2nc3ccccc3s2)NC1=O (centres unmarked)	12.6
Cc1cccc(-c2noc(Cc3ccc(Cl)cc3)n2)c1	13.1
COc1ccc(NC(=O)c2cccnc2SC)cc1OC	7.51
CC(=O)c1ccc(N2CCN(S(=O)(=O)c3ccc4c(c3)NC(=O)CO4)CC2)cc1	12.2
CCn1c(SC(C)C)nnc1-c1cc(-c2ccccc2)sc1N	6.79
CCc1ccccc1NC(=S)N=Nc1c(O)n(C)c2ccc(S(=O)(=O)N3CCOCC3)cc12	3.29
COCCCn1c(SCC(=O)NCc2ccccc2)nc2ccccc2c1=O	-8.03
CCC(CC)C(=O)Nc1nnc(SCC(=O)N2CCN(c3ccccc3OC)CC2)s1	12.8
CCC(=O)N1CCN(c2ccc(NC(=O)COc3ccc(CC)cc3)cc2)CC1	10.9
NC(N)=Nc1nc(-c2ccccc2)c2ccccc2n1	-6.8
Cc1ccc(C(=O)N2CCC(n3nccc3NC(=O)Nc3cccc(F)c3)CC2)cn1	10.9
O=C(Nc1cccc(O)c1)c1noc2c1CCCCC2	-0.868
O=c1cc(N2CCCC2)c2ccccc2o1	1.44

SMILES	hERG current change (%, negative = inhibition) at 1uM [%]
CCOC(=O)/C(=C\C=C\N1CCOCC1)C(C)=O	4.97
CCOC(=O)C1CCN(C=Nc2cc(C)on2)CC1	17.5
COc1cccc(C(=O)NCCCNC(=O)c2ccccn2)c1	15.2
CCN(C(=O)C(C)OC(=O)C1C(C(=O)OC)=C(C)NC(C)=C1C(=O)OC)c1ccccc1 (centres unmarked)	5.45
Clc1ccc(CN=C2Nc3ccccc3CS2)cc1	15.8
CCOc1ccc(OCc2ccc(C(=O)NCc3ccncc3)o2)cc1	6.08
Cc1occc1-c1nnc(SCC(=O)NC2CCCCC2)o1	16.2
Cc1ccc(C(=O)NCC(=O)Nc2ccncc2)cc1C	2.5
CN(C(=O)Cn1cc(C(F)(F)F)ccc1=O)c1c(N)n(Cc2ccccc2)c(=O)[nH]c1=O	2.53
O=C(COC(=O)c1cccc(C(=O)OCC(=O)NC2CCCCC2)n1)NC1CCCCC1	10.5
COc1ccccc1NC(=O)C(C)Sc1nccn1C (centres unmarked)	-3.84
CC(C)NS(=O)(=O)c1ccc(CCC(=O)NCc2cccnc2)cc1	-2.67
COCCCNC(=O)C1CCCN(S(C)(=O)=O)C1 (centres unmarked)	-0.126
Cc1ccc2oc(C(=O)Nc3ccc(S(=O)(=O)Nc4onc(C)c4C)cc3)cc(=O)c2c1	15.4
CCOc1ccc(-n2nnnc2SCC(=O)N2CCOCC2)cc1	11.6
COc1ccc(C(=O)NC(C(=O)NCc2ccccc2OC)C(C)C)cc1 (centres unmarked)	9.93
O=C(c1ccccc1Sc1c(Cl)cccc1[N+](=O)[O-])N1CCOCC1	16.6
Cc1noc(NS(=O)(=O)c2ccc(NC(=O)c3ccoc3C)cc2)c1C	11.5
CCSc1nnc(C)c(=O)n1COC(=O)c1ccc(S(=O)(=O)N2CCCC2)cc1	11.2

— publication PMC4336329 (PLoS ONE, 2015)
